Reference: the supplement of paper PMC11876631
± gives the standard deviation of the averaged measurements. Laboratory Escherichia coli strains with one amino-acid change in an essential protein, pooled on minimal glucose agar with carbenicillin or gentamicin at twice the control MIC (plus kanamycin and chloramphenicol for the plasmids), 48 h. Fold change of barcode share against drug-free plates; higher = less susceptible. Active = above 20 in both replicates (the paper's putatively resistant). '<' = one read or none on drug, '>' = one read or none on a drug-free plate. Shares are relative, so most strains fall below 1 when a few take over. Listed are strains with at least 15 reads on both drug-free plates, and hits; most hits rest on fewer reference reads. Replicate rank correlation about 0.5. Edits are read from barcodes.

Molecular target: Escherichia coli (laboratory strain)
Test: barcode share on antibiotic plates over drug-free plates; higher = less susceptible
Method: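 A pool of E. coli strains, each edited to carry one amino-acid change in an essential protein, was grown for 48 h on minimal glucose agar with or without antibiotic; strain barcodes were sequenced; mean of two replicates.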

[1] = antibiotic: carbenicillin, 2× MIC (3.1 µg/mL)
[2] = antibiotic: gentamicin, 2× MIC (MIC 0.45 µg/mL)

| Protein | fold change of barcode share [1] | fold change of barcode share [2] |
| --- | --- | --- |
| hisI V23D (protein) MLTEQQRRELDWEKTDGLMPVIDQHAVSGEVLMLGYMNPEALDKTLESGKVTFFSRTKQRLWTKGETSGNFLNVVSIAPDCDNDTLLVLANPIGPTCHKGTSSCFGDTAHQWLFLYQLEQLLAERKSADPETSYTAKLYASGTKRIAQKVGEEGVETALAATVHDRFELTNEASDLMYHLLVLLQDQGLDLTTVIENLRKRHQ | 1.01 ± 0.12 | 0.0284 ± 0.02 |
| hisI F54A (protein) MLTEQQRRELDWEKTDGLMPVIVQHAVSGEVLMLGYMNPEALDKTLESGKVTFASRTKQRLWTKGETSGNFLNVVSIAPDCDNDTLLVLANPIGPTCHKGTSSCFGDTAHQWLFLYQLEQLLAERKSADPETSYTAKLYASGTKRIAQKVGEEGVETALAATVHDRFELTNEASDLMYHLLVLLQDQGLDLTTVIENLRKRHQ | 0.474 ± 0.0099 | 0.00904 ± 0.0072 |
| hisI F54W (protein) MLTEQQRRELDWEKTDGLMPVIVQHAVSGEVLMLGYMNPEALDKTLESGKVTFWSRTKQRLWTKGETSGNFLNVVSIAPDCDNDTLLVLANPIGPTCHKGTSSCFGDTAHQWLFLYQLEQLLAERKSADPETSYTAKLYASGTKRIAQKVGEEGVETALAATVHDRFELTNEASDLMYHLLVLLQDQGLDLTTVIENLRKRHQ | 0.487 ± 0.12 | 0.0178 ± 0.011 |
| hisI F54Q (protein) MLTEQQRRELDWEKTDGLMPVIVQHAVSGEVLMLGYMNPEALDKTLESGKVTFQSRTKQRLWTKGETSGNFLNVVSIAPDCDNDTLLVLANPIGPTCHKGTSSCFGDTAHQWLFLYQLEQLLAERKSADPETSYTAKLYASGTKRIAQKVGEEGVETALAATVHDRFELTNEASDLMYHLLVLLQDQGLDLTTVIENLRKRHQ | 0.424 ± 0.098 | < 0.0047 |
| hisI F54D (protein) MLTEQQRRELDWEKTDGLMPVIVQHAVSGEVLMLGYMNPEALDKTLESGKVTFDSRTKQRLWTKGETSGNFLNVVSIAPDCDNDTLLVLANPIGPTCHKGTSSCFGDTAHQWLFLYQLEQLLAERKSADPETSYTAKLYASGTKRIAQKVGEEGVETALAATVHDRFELTNEASDLMYHLLVLLQDQGLDLTTVIENLRKRHQ | 0.393 ± 0.0099 | 0.014 ± 0.0047 |
| hisI W112Q (protein) MLTEQQRRELDWEKTDGLMPVIVQHAVSGEVLMLGYMNPEALDKTLESGKVTFFSRTKQRLWTKGETSGNFLNVVSIAPDCDNDTLLVLANPIGPTCHKGTSSCFGDTAHQQLFLYQLEQLLAERKSADPETSYTAKLYASGTKRIAQKVGEEGVETALAATVHDRFELTNEASDLMYHLLVLLQDQGLDLTTVIENLRKRHQ | 0.787 ± 0.071 | 0.0109 ± 0.012 |
| argH L339A (protein) MALWGGRFTQAADQRFKQFNDSLRFDYRLAEQDIVGSVAWSKALVTVGVLTAEEQAQLEEALNVLLEDVRARPQQILESDAEDIHSWVEGKLIDKVGQLGKKLHTGRSRNDQVATDLKLWCKDTVSELLTANRQLQSALVETAQNNQDAVMPGYTHLQRAQPVTFAHWCLAYVEMLARDESRLQDALKRLDVSPLGCGALAGTAYEIDREQLAGWLGFASATRNSLDSVSDRDHVLELLSAAAIGMVHLSRFAEDLIFFNTGEAGFVELSDRVTSGSSLMPQKKNPDALELIRGKCGRVQGALTGMMMTLKGLPLAYNKDMQEDKEGLFDALDTWLDCAHMAALVLDGIQVKRPRCQEAAQQGYANATELADYLVAKGVPFREAHHIVGEAVVEAIRQGKPLEDLPLSELQKFSQVIDEDVYPILSLQSCLDKRAAKGGVSPQQVAQAIAFAQARLG | 1.42 ± 0.66 | 0.0103 ± 0.0046 |
| hisI F114W (protein) MLTEQQRRELDWEKTDGLMPVIVQHAVSGEVLMLGYMNPEALDKTLESGKVTFFSRTKQRLWTKGETSGNFLNVVSIAPDCDNDTLLVLANPIGPTCHKGTSSCFGDTAHQWLWLYQLEQLLAERKSADPETSYTAKLYASGTKRIAQKVGEEGVETALAATVHDRFELTNEASDLMYHLLVLLQDQGLDLTTVIENLRKRHQ | 0.951 ± 0.25 | 0.0494 ± 0.055 |
| argH L339W (protein) MALWGGRFTQAADQRFKQFNDSLRFDYRLAEQDIVGSVAWSKALVTVGVLTAEEQAQLEEALNVLLEDVRARPQQILESDAEDIHSWVEGKLIDKVGQLGKKLHTGRSRNDQVATDLKLWCKDTVSELLTANRQLQSALVETAQNNQDAVMPGYTHLQRAQPVTFAHWCLAYVEMLARDESRLQDALKRLDVSPLGCGALAGTAYEIDREQLAGWLGFASATRNSLDSVSDRDHVLELLSAAAIGMVHLSRFAEDLIFFNTGEAGFVELSDRVTSGSSLMPQKKNPDALELIRGKCGRVQGALTGMMMTLKGLPLAYNKDMQEDKEGLFDALDTWLDCWHMAALVLDGIQVKRPRCQEAAQQGYANATELADYLVAKGVPFREAHHIVGEAVVEAIRQGKPLEDLPLSELQKFSQVIDEDVYPILSLQSCLDKRAAKGGVSPQQVAQAIAFAQARLG | 0.999 ± 0.23 | 0.0179 ± 0.0028 |
| hisS L240A (protein) MAKNIQAIRGMNDYLPGETAIWQRIEGTLKNVLGSYGYSEIRLPIVEQTPLFKRAIGEVTDVVEKEMYTFEDRNGDSLTLRPEGTAGCVRAGIEHGLLYNQEQRLWYIGPMFRHERPQKGRYRQFHQLGCEVFGLQGPDIDAELIMLTARWWRALGISEHVTLELNSIGSLEARANYRDALVAFLEQHKEKLDEDCKRRMYTNPLRVLDSKNPEVQALLNDAPALGDYLDEESREHFAGACKLLESAGIAYTVNQRLVRGLDYYNRTVFEWVTNSLGSQGTVCAGGRYDGLVEQLGGRATPAVGFAMGLERLVLLVQAVNPEFKADPVVDIYLVASGADTQSAAMALAERLRDELPGVKLMTNHGGGNFKKQFARADKWGARVAVVLGESEVANGTAVVKDLRSGEQTAVAQDSVAAHLRTLLG | 0.358 ± 0.095 | 0.00368 ± 0.0014 |
| hisS L240W (protein) MAKNIQAIRGMNDYLPGETAIWQRIEGTLKNVLGSYGYSEIRLPIVEQTPLFKRAIGEVTDVVEKEMYTFEDRNGDSLTLRPEGTAGCVRAGIEHGLLYNQEQRLWYIGPMFRHERPQKGRYRQFHQLGCEVFGLQGPDIDAELIMLTARWWRALGISEHVTLELNSIGSLEARANYRDALVAFLEQHKEKLDEDCKRRMYTNPLRVLDSKNPEVQALLNDAPALGDYLDEESREHFAGWCKLLESAGIAYTVNQRLVRGLDYYNRTVFEWVTNSLGSQGTVCAGGRYDGLVEQLGGRATPAVGFAMGLERLVLLVQAVNPEFKADPVVDIYLVASGADTQSAAMALAERLRDELPGVKLMTNHGGGNFKKQFARADKWGARVAVVLGESEVANGTAVVKDLRSGEQTAVAQDSVAAHLRTLLG | 0.412 ± 0.28 | < 0.00333 |
| hisS L240Q (protein) MAKNIQAIRGMNDYLPGETAIWQRIEGTLKNVLGSYGYSEIRLPIVEQTPLFKRAIGEVTDVVEKEMYTFEDRNGDSLTLRPEGTAGCVRAGIEHGLLYNQEQRLWYIGPMFRHERPQKGRYRQFHQLGCEVFGLQGPDIDAELIMLTARWWRALGISEHVTLELNSIGSLEARANYRDALVAFLEQHKEKLDEDCKRRMYTNPLRVLDSKNPEVQALLNDAPALGDYLDEESREHFAGQCKLLESAGIAYTVNQRLVRGLDYYNRTVFEWVTNSLGSQGTVCAGGRYDGLVEQLGGRATPAVGFAMGLERLVLLVQAVNPEFKADPVVDIYLVASGADTQSAAMALAERLRDELPGVKLMTNHGGGNFKKQFARADKWGARVAVVLGESEVANGTAVVKDLRSGEQTAVAQDSVAAHLRTLLG | 0.553 ± 0.24 | 0.00533 ± 0.0012 |
| argH L339Q (protein) MALWGGRFTQAADQRFKQFNDSLRFDYRLAEQDIVGSVAWSKALVTVGVLTAEEQAQLEEALNVLLEDVRARPQQILESDAEDIHSWVEGKLIDKVGQLGKKLHTGRSRNDQVATDLKLWCKDTVSELLTANRQLQSALVETAQNNQDAVMPGYTHLQRAQPVTFAHWCLAYVEMLARDESRLQDALKRLDVSPLGCGALAGTAYEIDREQLAGWLGFASATRNSLDSVSDRDHVLELLSAAAIGMVHLSRFAEDLIFFNTGEAGFVELSDRVTSGSSLMPQKKNPDALELIRGKCGRVQGALTGMMMTLKGLPLAYNKDMQEDKEGLFDALDTWLDCQHMAALVLDGIQVKRPRCQEAAQQGYANATELADYLVAKGVPFREAHHIVGEAVVEAIRQGKPLEDLPLSELQKFSQVIDEDVYPILSLQSCLDKRAAKGGVSPQQVAQAIAFAQARLG | 0.443 ± 0.09 | 0.00817 ± 0.0062 |
| hisS F269A (protein) MAKNIQAIRGMNDYLPGETAIWQRIEGTLKNVLGSYGYSEIRLPIVEQTPLFKRAIGEVTDVVEKEMYTFEDRNGDSLTLRPEGTAGCVRAGIEHGLLYNQEQRLWYIGPMFRHERPQKGRYRQFHQLGCEVFGLQGPDIDAELIMLTARWWRALGISEHVTLELNSIGSLEARANYRDALVAFLEQHKEKLDEDCKRRMYTNPLRVLDSKNPEVQALLNDAPALGDYLDEESREHFAGLCKLLESAGIAYTVNQRLVRGLDYYNRTVAEWVTNSLGSQGTVCAGGRYDGLVEQLGGRATPAVGFAMGLERLVLLVQAVNPEFKADPVVDIYLVASGADTQSAAMALAERLRDELPGVKLMTNHGGGNFKKQFARADKWGARVAVVLGESEVANGTAVVKDLRSGEQTAVAQDSVAAHLRTLLG | 0.368 ± 0.01 | < 0.0037 |
